According to publication PMC4336329 (PLoS ONE, 2015):
Out of some 310,000 compounds screened, about 2,200 (0.71%) showed an effect of 50% or more. The effect is printed as a negative number. This is one part of the list.

What follows are compounds tested against human ether-à-go-go-related gene (hERG) potassium channel (human, UniProt Q12809) (assay: primary screen, population patch clamp on CHO cells stably expressing hERG).
human ether-à-go-go-related gene (hERG) potassium channel, sequence (Q12809 whole entry, looked up): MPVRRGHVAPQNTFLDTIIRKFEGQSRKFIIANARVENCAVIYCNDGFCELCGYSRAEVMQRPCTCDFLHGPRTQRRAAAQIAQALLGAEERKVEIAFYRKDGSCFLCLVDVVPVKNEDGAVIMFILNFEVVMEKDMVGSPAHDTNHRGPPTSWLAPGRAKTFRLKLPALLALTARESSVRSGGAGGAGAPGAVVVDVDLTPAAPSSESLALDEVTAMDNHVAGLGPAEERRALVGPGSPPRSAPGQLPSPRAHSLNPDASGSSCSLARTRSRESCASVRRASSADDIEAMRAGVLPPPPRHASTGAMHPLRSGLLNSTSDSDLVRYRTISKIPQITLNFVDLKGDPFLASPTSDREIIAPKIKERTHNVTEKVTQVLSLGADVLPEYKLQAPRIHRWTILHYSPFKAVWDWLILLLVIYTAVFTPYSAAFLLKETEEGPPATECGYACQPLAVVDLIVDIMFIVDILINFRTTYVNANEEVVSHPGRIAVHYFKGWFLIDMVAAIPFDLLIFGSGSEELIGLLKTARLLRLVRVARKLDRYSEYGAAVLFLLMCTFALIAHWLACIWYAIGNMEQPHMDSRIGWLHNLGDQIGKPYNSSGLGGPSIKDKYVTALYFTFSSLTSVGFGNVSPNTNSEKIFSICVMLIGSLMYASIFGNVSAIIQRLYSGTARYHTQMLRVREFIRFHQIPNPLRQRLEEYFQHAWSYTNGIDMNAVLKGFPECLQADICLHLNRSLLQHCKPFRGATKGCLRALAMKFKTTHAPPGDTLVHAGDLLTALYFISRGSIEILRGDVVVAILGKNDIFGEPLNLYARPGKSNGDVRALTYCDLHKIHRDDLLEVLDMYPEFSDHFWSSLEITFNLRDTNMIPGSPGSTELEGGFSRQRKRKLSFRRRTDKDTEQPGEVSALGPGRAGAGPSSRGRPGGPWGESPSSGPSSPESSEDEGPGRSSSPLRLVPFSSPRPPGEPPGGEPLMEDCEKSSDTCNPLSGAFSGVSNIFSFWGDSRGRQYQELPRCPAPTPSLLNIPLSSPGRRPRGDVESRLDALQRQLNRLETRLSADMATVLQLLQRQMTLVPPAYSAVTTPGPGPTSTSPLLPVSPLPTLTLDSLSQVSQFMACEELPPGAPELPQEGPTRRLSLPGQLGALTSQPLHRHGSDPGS
In the case of `O=C(O)CCCNc1ccc(S(=O)(=O)N2CCCCC2)cc1`, the “hERG current change (%, negative = inhibition) at 1uM” value is reported as 6.35%. For `COC(=O)C1=C(C)NC(C)=C(C(=O)O[C@@H]2CCCN(Cc3ccccc3)C2)[C@@H]1c1cccc([N+](=O)[O-])c1.Cl`, the “hERG current change (%, negative = inhibition) at 1uM” value was 15.5%. For `CCn1c(SCC(=O)c2cc(OC)ccc2OC)nnc1C(C)C`, the “hERG current change (%, negative = inhibition) at 1uM” value was 11.5%. `COc1cccc(CCC(=O)N2CCC(n3nccc3NC(=O)CC(C)C)CC2)c1` was tested, and the “hERG current change (%, negative = inhibition) at 1uM” value was 5.01%. `COc1cccc(NC(=O)CSc2nnc(Cc3ccc(OC)c(OC)c3)o2)c1` was tested, and the “hERG current change (%, negative = inhibition) at 1uM” value was 11.9%. For `O=C(NCc1ccccn1)C1CCC(=O)N1C1CCCCC1` (stereo not drawn), the “hERG current change (%, negative = inhibition) at 1uM” value was 6.16%. `NC(=O)CSc1n[nH]c(=O)n1CCc1ccccc1` was tested, and the “hERG current change (%, negative = inhibition) at 1uM” value was 10.4%. For `CCCC(=O)N(Cc1cc(=O)[nH]c2ccccc12)c1ccccc1`, the “hERG current change (%, negative = inhibition) at 1uM” value was 4.19%. `CN(C)S(=O)(=O)c1ccc(C(=O)NCc2nnc(SCC(=O)c3ccccc3)o2)cc1` was tested, and the “hERG current change (%, negative = inhibition) at 1uM” value was 13.7%. With `COCCn1c(N)c(N(Cc2ccccc2)C(=O)c2ccc3ccccc3c2)c(=O)[nH]c1=O` the “hERG current change (%, negative = inhibition) at 1uM” value was 8.52%. `COC(C)(C)[C@]12CC(O)(c3ccccc3)ON1[C@H]1CCCCC1N2O` (stereo partly drawn) was tested, and the “hERG current change (%, negative = inhibition) at 1uM” value was 7.01%. With `O=C(c1ccc(Cl)c(S(=O)(=O)N2CCOCC2)c1)N1CCN(c2ccccc2F)CC1` the “hERG current change (%, negative = inhibition) at 1uM” value was 4.69%. `S=C(Sc1ccc(Cl)cc1)Sc1ccc(Cl)cc1` was tested, and the “hERG current change (%, negative = inhibition) at 1uM” value was 13.1%. In the case of `c1ccc(CSc2ccc(-c3ccccn3)nn2)cc1`, the “hERG current change (%, negative = inhibition) at 1uM” value is reported as 6.19%. For `COCCn1c(SCc2ccccc2)nc2c1c(=O)[nH]c(=O)n2C`, the “hERG current change (%, negative = inhibition) at 1uM” value was 11.8%. For `C=CCn1c(COc2ccccc2F)nnc1SCC(=O)c1c[nH]c2ccccc12`, the “hERG current change (%, negative = inhibition) at 1uM” value was 7.59%. With `O=C1/C(=C/c2cccc(Cl)c2)SC(=S)N1CCC(=O)N1CCCCC1CCO` (stereo not drawn) the “hERG current change (%, negative = inhibition) at 1uM” value was 14%. `Cc1c(NC(=O)C(C)OC(=O)/C=C/c2ccco2)c(=O)n(-c2ccccc2)n1C` (stereo not drawn) was tested, and the “hERG current change (%, negative = inhibition) at 1uM” value was 11.2%. `COc1cc(NC(=O)CSc2nnc(-c3cc(C)on3)o2)cc(OC)c1` was tested, and the “hERG current change (%, negative = inhibition) at 1uM” value was 14.1%. `CN(C)CCCOc1ccc(C(C)(C)c2ccccc2)cc1.O=C(O)C(=O)O` was tested, and the “hERG current change (%, negative = inhibition) at 1uM” value was 4.27%. For `COC(=O)c1ccc(-c2noc(CN(C)CCC3CCCCO3)n2)cc1` (stereo not drawn), the “hERG current change (%, negative = inhibition) at 1uM” value was 5.65%. In the case of `O=C(Nc1cc([N+](=O)[O-])ccc1F)c1ccc2ccccc2c1`, the “hERG current change (%, negative = inhibition) at 1uM” value is reported as 18.2%. For `Cc1ccccc1C(=O)NNC(=O)CSc1nnc(C)n1-c1ccccc1`, the “hERG current change (%, negative = inhibition) at 1uM” value was 11.8%. For `COc1ccc(N(CC(=O)NCC2CCCO2)C(=O)CCC(=O)Nc2cc(C)on2)cc1OC` (stereo not drawn), the “hERG current change (%, negative = inhibition) at 1uM” value was 18.4%.
